# In publication PMC12136788:
# Some of the results follow.
# T1: UNK ZnF1-3 (human, UniProt Q9C0B0 31-174)
# T1 sequence: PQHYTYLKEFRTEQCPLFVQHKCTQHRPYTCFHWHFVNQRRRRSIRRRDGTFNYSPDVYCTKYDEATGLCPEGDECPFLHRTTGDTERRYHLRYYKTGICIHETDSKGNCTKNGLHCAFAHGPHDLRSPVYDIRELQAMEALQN
# B1: 41688753_41688873_826_CDS_ENSG00000137806_ENST00000260361|human|control|control (ssRNA)
# RNA: GGGAGUUCUACAGUCCGACGAUCGCUCAGAGUUCCAUAUAGCAGUGCACUUUGGUUAUUCUUGCCCAUUUUCAAAAACACUUCACUUCUGCCUCCAAUCGUCUUAUCAGAAGUCACUGUCCACUUAUCCAAAUCUUCUUUCCCCAACAGAGGAUUGAGCAUCA
# B2: chr5:44151052:44151053:-_ENSMUSG00000039753_ENSMUST00000047857|mus_mus|motif|central (ssRNA)
# RNA: GGGAGUUCUACAGUCCGACGAUCGUCGGUCUGGGUAAGAUCCAGAUGUUCCAGGUUAGGACAAAGCUCUAAAAUCUGCCGGACCAUUUUGCUGGAGACUGCAGAGCUGUACGCUAACACUAAAGUUUUUACAGAGGUACCAACCAACAGAGGAUUGAGCAUCA
# B3: chr3:10015032:10015033:+_ENSMUSG00000027533_ENSMUST00000029046|mus_mus|mus_mus_mus_hu_True|18_98 (ssRNA)
# RNA: GGGAGUUCUACAGUCCGACGAUCGUUUUUACCAUCACACGUAAUGAUACAAUCUGGCUUGGCCAUUGCGCCCAUUUUUCGCAAAGCUAUUCCCACUCCUAGCUCCUUCAUGUAUUCCUCAAAGCCGUUGCUGUCCACCAGGCGCAACAGAGGAUUGAGCAUCA
# B4: chr13:42895476:42895477:+_ENSG00000023516_ENST00000025301|hu_mus|FALSE|FALSE (ssRNA)
# RNA: GGGAGUUCUACAGUCCGACGAUCGUUGCACUGAAUGAAGAACACUGAGUGAGCGCUGCUUGGCUUCACCAGAAUGCAAAGGAACCAGGAGCAGAGUUAAAGCUCGCCUCAAAUAACUACACCAGCAGCUGAAACACGCCUGGGCAACAGAGGAUUGAGCAUCA
# B5: chr5:128448638:128448639:+_ENSG00000066583_ENST00000173527|hu_mus|hu_hu_hu_mus_False|28_98 (ssRNA)
# RNA: GGGAGUUCUACAGUCCGACGAUCGGCACUCGCCUUAAUUAGAUUCUGAAUUUCCUUGAACUUCGGGUGGUCUUUGUCAGCCACCAGCUGUAGGAGGACAGCCUCACUCGUGGUCACGAUGAUCCCAGUGCGGGCAAGACGCUCCAACAGAGGAUUGAGCAUCA
# B6: chr5:145888941:145888942:+_ENSMUSG00000029622_ENSMUST00000085679|mus_mus|FALSE|FALSE (ssRNA)
# RNA: GGGAGUUCUACAGUCCGACGAUCCUUUGGGUUUUUGUUUCUUGUAUUUUUUGGGUUUUGGGUUGUUUGUUUUUUUUUUUUUUUUUUUUUUUUUUGGCCUUGUUUUUGGUUUGCAAUAAAGAGUAUUUCUUUAAAAGGCACAUUCAACAGAGGAUUGAGCAUCA
# B7: 183498046_183498166_730_3pUTR_ENSG00000116698_ENST00000515829|human|control|control (ssRNA)
# RNA: GGGAGUUCUACAGUCCGACGAUCUUUAGAAAGUGCUUUUUGCAGAUUAGUGGAGGCAGCUGGGAAAGGGAACUUCACAGCAAUGCUUCUGCAGUAGUAGAAAAUUGUGGUCAGAUGGUCUCCUUUGGAAGAAGCUAAGAUAGCCAACAGAGGAUUGAGCAUCA
# B8: 77267893_77268013_3409_CDS_ENSMUSG00000037926_ENSMUST00000037912|mouse|control|control (ssRNA)
# RNA: GGGAGUUCUACAGUCCGACGAUCGUCUUGCGGGCUACUUAACAUAGGGUUUGGGUCAGCGGGCCUGUCACACUCUGAGGAAGAAUGAGGCAGAGGUAGCACUUGGGGAUGCAGAGAAACUUGACUGGGCUCCAGAGUCCUGUUCAACAGAGGAUUGAGCAUCA
# B9: chr2:26332712:26332713:+_ENSG00000084733_ENST00000264710|hu_mus|FALSE|FALSE (ssRNA)
# RNA: GGGAGUUCUACAGUCCGACGAUCGUUUCUAAGCCACUUGCUGAUGUUCUCAAAGCUUUUACCGUUGGUGAUGUCAUACACUAGCAUGAUGCCCAUUGCUCCUCUGUAGUAGGAGGUUGUGAUGGUGUGAAAUCGCUCCUGGCCCAACAGAGGAUUGAGCAUCA
# B10: chr9:95013113:95013114:-_ENSG00000196305_ENST00000443024|hu_hu|hu_hu_hu_mus_False|8_48 (ssRNA)
# RNA: GGGAGUUCUACAGUCCGACGAUCCUCAGUCAGAAAGGGCGUGUAAGGGGCCAUCAGUCUGCACAGAGAAAGCAGGACACUGAACAGGGUUUCUAGGGCCAUGACACAGUCUUCCACCCCACUCUCACCCUUUAAUCUCCUCCUCAACAGAGGAUUGAGCAUCA
# B11: chrX:71549762:71549763:+_ENSMUSG00000019087_ENSMUST00000019231|mus_mus|mus_mus_mus_hu_False|58_58 (ssRNA)
# RNA: GGGAGUUCUACAGUCCGACGAUCAAACCCGUGUACUUCUUAUUGUUAGCACAACAUCACCAGAAAACGAUAACGACAGCUAAGCUGGACAGACAGUUAAGUAGUACUUCCACACUCCCAAACUCAGGGAGCCCUAUAACCUUACAACAGAGGAUUGAGCAUCA
# B12: chr4:148554205:148554206:-_ENSMUSG00000063077_ENSMUST00000060537|mus_mus|FALSE|FALSE (ssRNA)
# RNA: GGGAGUUCUACAGUCCGACGAUCUAGCCACCAAAGAGAAAGAGAAAGAGAGACAGAGACAGACAGACACACACACACACACAUACAGAGAAAGAGAGAGAGUCAGAGACAGACACAGAGAGAGACAGACAGACACCAGACACACAACAGAGGAUUGAGCAUCA
# B13: chr6:89808334:89808335:-_ENSG00000154548_ENST00000452027|hu_mus|FALSE|FALSE (ssRNA)
# RNA: GGGAGUUCUACAGUCCGACGAUCUCUGCUGGGAGGAGCUCCUCACCAACUGUUUUUAUGGUGGUAACUCCGAGAUCUGGAGUGGGACCGGAGAUGGGAGUGUUUUGUUGUCUGUGUCUUCGAUCCAGAACUGGUGUACGCUCUCAACAGAGGAUUGAGCAUCA
# B14: chr7:54825262:54825263:-_ENSG00000132432_ENST00000352861|hu_hu|hu_hu_hu_mus_False|8_38 (ssRNA)
# RNA: GGGAGUUCUACAGUCCGACGAUCCUGCCGGCUGGGCUCCACAAACUGCAUUACCUGAUCCAUGUUUGUUGGAUGGCGGAUUGAGAGCGUAGAGACAACGUAGCACUGAGAGAACCGAGCCCAACGGCACCGGAACCUGGCAACCAACAGAGGAUUGAGCAUCA
# B15: 100648241_100648361_5692_3pUTR_ENSMUSG00000023032_ENSMUST00000023776|mouse|control|control (ssRNA)
# RNA: GGGAGUUCUACAGUCCGACGAUCAGAGCCAAGGCUUCAAUUAACGUGUUCUUGAGUCCCAGCCCCCCAACUCCACUCACACCACCAGCUGACAUUACCAGCAAGUCAUGACAUUAGCUGGCCACAUUCAAGACGUGUCUGAGACAACAGAGGAUUGAGCAUCA
# B16: 182499086_182499206_61_5pUTR_ENSMUSG00000026496_ENSMUST00000027777|mouse|control|control (ssRNA)
# RNA: GGGAGUUCUACAGUCCGACGAUCCGCGUACUCCACUCGAUAAAGCCUCUCCGAGGCCUCCGCCAUCCUCCUUCUCGUGCUGCAGCGGCAGCCCGACGCCGCCGCUGGUGCGCUCCGCUAACGUGUCGGUUUCCCCCGCAAGCGCAACAGAGGAUUGAGCAUCA
# B17: 118649187_118649598_1739_CDS_ENSMUSG00000020114_ENSMUST00000020315|mouse|control|control (ssRNA)
# RNA: GGGAGUUCUACAGUCCGACGAUCCAGUGAGAAAAUGAUUCCUGGUACCAGUACAGGAAUGUGCUGGGUUAGUGCUCCCGGCAGCACAUUUACCAGCUCAGUUAACAUGUUAAAGCAACACUGUCGGGUCUUCACACUCUUCUCCAACAGAGGAUUGAGCAUCA
# B18: chr12:493273:493274:-_ENSG00000073614_ENST00000399788|hu_mus|hu_hu_hu_mus_False|28_58 (ssRNA)
# RNA: GGGAGUUCUACAGUCCGACGAUCUUUUCUCUCCACCACAGGGAUCUUCAAUGUAGAUCCUUGAAGUUCCCAAAAUUUUGCUAGUUGAUCCAAGAAGUCCAAUCUUACUCUGGUCAUUGCCUCAAGUUCAUUCAGGCGCUGGACCAACAGAGGAUUGAGCAUCA
# B19: chr1:187196858:187196859:+_ENSMUSG00000026615_ENSMUST00000046514|mus_hu|FALSE|FALSE (ssRNA)
# RNA: GGGAGUUCUACAGUCCGACGAUCAACAUCCCACUUGGUACCUACUGACUGGAAGGCCUGCUGGGCUUCAAGAAAGCCAAACCAACGUUUUACAUGAACUGGAGCUUUCUUCUGUUUCAACUGUUCUUGCCAGGCAGCAUUUCCCAACAGAGGAUUGAGCAUCA
# B20: 43184458_43184578_3020_3pUTR_ENSG00000136448_ENST00000258960|human|control|control (ssRNA)
# RNA: GGGAGUUCUACAGUCCGACGAUCCCAAAACCCACAGCCUGCAACAAGCCCCUGCUGGCCUGUAGAAAGUGGCUUCGGUGAGUGGCACAGGGCUGAGCCUGGCCUCCUGGCUAAGGCUUCAUUCCUGUAUGAGCGGAGAGGUGACAACAGAGGAUUGAGCAUCA
# B21: chr1:163112212:163112213:-_ENSG00000143248_ENST00000313961|hu_hu|hu_hu_hu_mus_False|8_38 (ssRNA)
# RNA: GGGAGUUCUACAGUCCGACGAUCUUUUAUUAUCAGUAAGAGUGAGUUACAUACUAGGCAAAGUAUUGGAUACAAUAAUCAGGAAACAAACACUAUUUUUCUUGAAUUUAAAACUUUAUGAGCGAAGGCUUACAAAUGGACUUACAACAGAGGAUUGAGCAUCA
# B22: chr10:57939204:57939205:+_ENSMUSG00000003226_ENSMUST00000003310|mus_mus|motif|central (ssRNA)
# RNA: GGGAGUUCUACAGUCCGACGAUCGGGUGGCCUUAUUACUUCACCCUGCAUGGGCUGAACGAAAUUGGAUUUUCCAAAUUCGGUAACCUUUGAUUCUGCUGACCUUGAAGCGUGAGCUACAAGUGGAGGCUUUGUGAAAUACCCCAACAGAGGAUUGAGCAUCA
# Target: T1, UNK ZnF1-3
# Test: nsRBNS (natural sequence RNA bind-n-seq); RBNS binding buffer (assumed for nsRBNS): 25 mM Tris pH 7.5, 150 mM KCl, 3 mM MgCl2, 0.01% Triton X-100, 500 ug/ml BSA, 20 U/ml SUPERase-In, 4 C; UNK is unkempt and MSI1 is Musashi-1; names of the RNAs are library labels; protein concentration not given here; high values mean tight binding
row,Binder,binding signal [enrichment R]
1,B1,0.856
2,B2,1.06
3,B3,0.697
4,B4,1.65
5,B5,0.717
6,B6,0.0872
7,B7,1.36
8,B8,1.67
9,B9,0.653
10,B10,0.934
11,B11,1.08
12,B12,2.83
13,B13,0.536
14,B14,1.65
15,B15,0.948
16,B16,0.87
17,B17,0.736
18,B18,0.939
19,B19,1.31
20,B20,1.16
21,B21,0.948
22,B22,0.757
